Source: PubChem BioAssay AID493208 (National Center for Advancing Translational Sciences (NCATS), 2011)
In all, about 44,000 compounds went through this assay and about 340 (0.77%) were called active. Roughly 5% stayed inconclusive and do not appear here. The call rests on the fitted dose curve; in most records, active means well fitted inhibition curve with a large enough effect; inconclusive means small, poorly fitted or top-dose-only effect; inactive means flat fitted curve, though single readings scatter. The list shows a part of the results.

assay: Acumen qHTS Assay for Inhibitors of the mTORC1 Signaling Pathway in MEF (Tsc2-/-, p53-/-) Cells: Sytravon; conditions: phospho-rpS6 immunofluorescence/PI, 24 h; series mostly up to 38.3 µM; activity change, negative = inhibition: at the top concentration;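 further: plate controls were DMSO for no effect and rapamycin for full effect; nearly all actives have a fitted effect of over 50% in size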
Summary of the method: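 Tsc2-/-, p53-/- mouse embryonic fibroblasts (empty-vector line) exposed to compound 24 hrs at 37 C, fixed, immunostained for phospho-rpS6 and counterstained with propidium iodide. Acumen laser scanning gives % positive cells from Alexa 488/PI ratio, thresholded using 7.5 nM rapamycin; PI count gives viability.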

Activity change, negative = inhibition, inactive:
Cc1ccc(C(=O)Nc2cc3nn(-c4ccccc4)nc3cc2Cl)c(C)c1 3.56%, N#C/C(=C\c1ccc(Cl)cc1Cl)c1nc(-c2cccc(Cl)c2)cs1 -7.37%, CCOc1ccccc1N(CC(=O)NCCSc1ccccc1)S(=O)(=O)c1ccccc1 10.2%, COc1ccccc1Cc1nc2ccccc2nc1SCC(=O)N(C)c1ccc(F)cc1 1.23%, Cc1cccc(N2CCN(C(=O)Nc3cn(CC(C)C)c(=O)c4ccccc34)CC2)c1C -0.561%, Cc1nnc(N2CCC(C(=O)NCCc3ccccc3Cl)CC2)c2nn(-c3ccccc3)c(C)c12 -8.29%, CCc1nn(CC(=O)NCCCN(CC(C)C)CC(C)C)c(=O)c2cc3sc(C)cc3n12 -6.62%, CCCCN(C)C(=O)C1CCCN(c2ncnc3onc(C)c23)C1 (stereo unspecified) -7.87%, COc1ccccc1N1CCN(C(=O)Cn2cnc3onc(-c4ccc(F)cc4)c3c2=O)CC1 6.88%, Cc1nn(-c2ccccc2)c2c1N(CC(=O)N1CCN(c3cccc(Cl)c3)CC1)C(=O)CS2 -3.04%, O=C(c1ccc2c(=O)n(CCc3ccccc3)c(=O)[nH]c2c1)N1CCN(c2ccc(F)cc2)CC1 -3.18%, CCOc1ccc(C(=O)Nc2cccc(-c3nc4cc(Cl)cc(Cl)c4o3)c2)cc1 -4.45%, COc1cccc(N2CC(NC(=O)c3ccco3)CC2=O)c1 (stereo unspecified) -8.04%, CCOc1ccc(CNC(=O)c2cc(=O)[nH]c3ccc(S(=O)(=O)N4CCCC4)cc23)cc1 7.04%, COc1ccc(C(=O)Nc2nc3c(s2)CCCC3)cc1Cl -9.12%, Cn1c(=O)c2c(-c3ccccc3)n3c(c2n(C)c1=O)C(c1ccco1)Nc1ccccc1-3 (stereo unspecified) -7.43%, COc1ccc(Cl)cc1CNCCSc1nnnn1C -20.3%, CCCn1cc(S(=O)(=O)c2ccc(CC)cc2)c(=O)c2cc(F)c(N(CC)CC)cc21 -6.37%, CCOc1cccc(NC(=O)CSc2ncc(-c3ccccc3)[nH]2)c1 1.4%, Cc1cccc(N2CCN(C(=O)c3ccc4c(c3)N(Cc3cccc(Cl)c3)C(=O)c3ccccc3S4=O)CC2C)c1 (stereo unspecified) -7.27%, CCOc1cccc2sc(N3CCN(C(=O)C4CC4)CC3)nc12 2.84%, Cc1cc(C)cc(NC(=O)CCCn2c3ccccc3c(=O)c3ccccc32)c1 -23.9%, CC(=O)c1ccc(N2CCN(C(=O)CCCCn3c(=O)[nH]c4ccccc4c3=O)CC2)cc1 -7.33%, Cc1ccc(NC(=O)CCC(=O)N2Cc3ccccc3Oc3ncccc32)cc1F 2.76%, O=C(NCc1ccc(F)cc1)c1ccc2nc(N3CCCCC3)sc2c1 -0.133%, CCOc1ccc(NC(=O)c2ccc3c(c2)CCN3S(=O)(=O)c2ccc(Cl)cc2)cc1 -13.6%, Cc1cccc(Cn2c(=O)n(CCC(=O)NCCc3ccc(Cl)cc3)c(=O)c3sccc32)c1 -2.31%, O=C(NCC(c1ccc2c(c1)OCO2)N1CCOCC1)C(=O)Nc1cccc(Cl)c1 (stereo unspecified) -1.39%, O=C(O)c1c(CNCc2cccc(F)c2)c2ccccc2n1Cc1ccccc1 -1.69%, Fc1cccc(Cl)c1Cn1c(-c2cccs2)nc2ccccc21 0.329%, COc1ccc(OC)c(CNC(=O)c2nn(C)c3c2CSc2ccccc2-3)c1 -3.41%, CC(=O)c1ccc(NC(=O)c2cc(S(=O)(=O)N3CCCCCC3)cn2C)cc1 -4.04%, Cc1ccc(NC(=O)CCCc2nnc3n(C)c(=O)c4sccc4n23)cc1F 0%, COc1ccc(-c2nc3c(c(SCC(=O)Nc4ccccc4F)n2)Cc2cc(C)ccc2O3)cc1 -3.82%, NC(=O)C1(N2CCCCC2)CCN(C(=O)Nc2ccc(F)cc2)CC1 -10.3%, CCc1ccccc1NC(=O)CN1C(=O)c2ccccc2Sc2ncccc21 -1.63%, CCCNC(=O)c1ccc2c(c1)sc1nc(-c3ccc(C)cc3)cn12 -2.22%, Cc1ccc(C)c(N2CCN(C(=O)C3CCCN(Cc4nc(-c5cccc(Cl)c5)oc4C)C3)CC2)c1 (stereo unspecified) 0.674%, O=C(CNC(=O)c1ccccc1)OCc1cc(=O)n2ccsc2n1 1.23%, Cc1ccc(N2CC(NC(=O)c3ccc(S(=O)(=O)N4CCCC4)cc3)CC2=O)cc1C (stereo unspecified) -4.14%, CCn1cc(C(=O)NCCCN2CCCC(C)C2)c(=O)c2cc(S(=O)(=O)N(C)C3CCCCC3)ccc21 (stereo unspecified) 0.708%, Cc1cc(C)cc(-n2ccn(CC(=O)Nc3cc(C)ccc3C)c(=O)c2=O)c1 3.76%, COc1ccc(CCNc2nc(-c3ccc(OC)c(OC)c3)cc(C(F)(F)F)n2)cc1OC -3.46%, Cc1cccc(CS(=O)(=O)Cc2ccc(C(=O)NCCc3ccccc3)o2)c1 0%, CCOC(=O)c1c(S(=O)(=O)N2CCCC(C(=O)NCc3cccc(OC)c3)C2)c(C)n(C)c1C (stereo unspecified) -10.8%, COc1ccc(-c2nnc(SCC(=O)NC3CCCC3)nc2-c2ccc(OC)c(OC)c2)cc1OC -0.0452%, CCOc1ccc(N2CC(c3nc4ccccc4n3Cc3ccccc3F)CC2=O)cc1 (stereo unspecified) -15.8%, COc1cccc(OC)c1C(=O)Nc1cccc(-c2cn3ccsc3n2)c1 -11.8%, O=C(NCc1ccccc1)C1CCN(S(=O)(=O)c2ccc3c(c2)CCCN3C(=O)C2CCC2)CC1 -6.76%, CCOc1ccc(NC(=O)c2ccc(F)c(S(=O)(=O)N(CC)Cc3ccccc3)c2)cc1 0.72%, Cc1cccc(NC(=O)C(=O)NCC(c2cccnc2)N2CCc3ccccc3C2)c1C (stereo unspecified) 8.39%, O=C(CCC1N=C2c3ccccc3N=C(SCc3cccc(F)c3)N2C1=O)NCc1cccs1 (stereo unspecified) -1.82%, CCOC(=O)c1scc(-c2ccc(C)cc2)c1S(=O)(=O)N1CCN(c2ccccc2F)CC1 5.46%, Cc1ccc(Cl)cc1N1CCN(C(=O)CCNS(=O)(=O)c2ccc3c(c2)CCN3C(=O)C2CC2)CC1 -4.36%, CCCCCSc1ncnc2c1sc1nc(N3CCOCC3)c3c(c12)CCCC3 -3.42%, Cc1ccc(NC(=O)NCc2cccn2Cc2ccccc2)c(C)c1 0%, COc1ccc(OC)c(NC(=O)c2cc(S(=O)(=O)NCCc3ccc(Cl)cc3)ccc2F)c1 7.02%, CCC(C)NC(=O)Cn1c(=O)n(-c2ccc(C)c(C)c2)c(=O)c2c3c(sc21)CCCCC3 (stereo unspecified) -5.01%, CCCCc1nn2c(=O)cc(COC(=O)C3CCCCC3)nc2s1 -8.06%, Cc1nc2nc(SCC(=O)NC3CCC(C)CC3)nn2c(C)c1Cc1ccccc1 (stereo unspecified) -21.5%, CCOc1ccc(OCC)c(NC(=O)c2ccc(-c3ccccc3)s2)c1 -1.19%
